From PubChem BioAssay AID924 (National Center for Advancing Translational Sciences (NCATS), 2007)
The campaign covered roughly 130,000 compounds. About 1,200 (0.92%) were called active. The inconclusive results got no clear call from the source; some entries with a clear call stand among them for comparison. Calls follow the shape of the dose curve; as a rule, active = well fitted cell-killing curve with a large enough effect; inconclusive = small, poorly fitted or top-dose-only effect; inactive = no such curve, though single readings can be large or run the other way. Potencies of inconclusive entries are doubtful fits and often do not repeat.
Potency is read from the fitted curve at half-maximal effect; tags tell the direction and shape of the fitted curve.

Experiment: qHTS Screen for Compounds that Selectively Target Cancer Cells with p53 Mutations: Cytotoxicity of p53ts Cells at the Permissive Temperature; also: nearly all actives have a fitted effect of over 55% in size
Settings: H1299-p53A138V at 32C, ATP luminescence viability, 24 h; activity change, negative = cytotoxicity: at 46.1 µM (top of the series)
Summary of the method: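 ATP-content luminescence (ATPlite) read-out after 24 h compound exposure at 32C in H1299-p53A138V cells (600/well). Tested up to 46 uM. Normalized to DMSO (0%) and 100 uM tamoxifen (100% killing); Hill-fit AC50.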
For `Cc1ccc(CCNC(=O)CCCn2c(=O)c3ccccc3n(CC(=O)Nc3cc(Cl)ccc3C)c2=O)cc1`, the Potency was inconclusive: 20 µM [cytotoxic, single point]. In the case of `CCc1ccc(NC(=O)c2ccc3c(=O)n4nc(Nc5ccccc5C)sc4nc3c2)cc1`, the Potency is reported as active: 12.6 µM. With `C=CCc1c(C)nc2nc(SCC(=O)Nc3cccc(Cl)c3)nn2c1C` the Potency was “inactive”. For `COc1ccc(-c2nc3cnc(N4CCOCC4)nc3n(C3CC3)c2=O)cc1`, the Potency was “inactive”. In the case of `O=c1c(-c2cccs2)nc2cnc(N3CCNCC3)nc2n1CCc1ccccc1`, the Potency is reported as inconclusive: 12.6 µM [cytotoxic, partial curve]. With `Oc1ccc(/C=C/c2nc(-c3ccccc3O)n(-c3ccccc3)n2)c(O)c1` the Potency was inconclusive: 35.5 µM [cytotoxic, single point]. In the case of `COc1ccc(CCNc2oc(COc3ccccc3Cl)nc2C#N)cc1OC`, the Potency is reported as inconclusive: 25.1 µM [cytotoxic, single point]. With `Cc1ncsc1C(=O)Nc1nc2c(s1)CCCC2` the Potency was inconclusive: 12.6 µM [cytotoxic, partial curve]. For `CC(C)(C)Nc1ncnc2c1cnn2-c1ccccc1`, the Potency was active: 7.94 µM. With `Cc1cnc(NC(=O)CSc2nnc(-c3ccccc3)o2)s1` the Potency was inconclusive: 12.6 µM [cytotoxic, partial curve]. In the case of `CCCCCNC(=O)c1cc2c(=O)n3ccccc3nc2n1C`, the Potency is reported as “inactive”. In the case of `COc1cc(NC(=O)c2cc3sccc3n2C)cc(OC)c1`, the Potency is reported as inconclusive: 10 µM [cytotoxic, partial curve]. With `CCCCC(=O)Nc1ccc2nc(SCC(=O)N3CCOCC3)sc2c1` the Potency was inconclusive: 12.6 µM [cytotoxic, partial curve, poor fit]. With `COc1ccc(CCNC(=O)c2ccc3c(c2)sc2nc(-c4ccc(C)cc4)cn23)cc1OC` the Potency was inconclusive: 3.98 µM [cytotoxic, single point]. With `CC(=O)Nc1cccc(NC(=O)c2cc3ccccc3o2)c1` the Potency was active: 12.6 µM. For `CCC(=O)c1ccc(OCC(=O)Nc2nn3cnnc3s2)cc1`, the Potency was inconclusive: 15.8 µM [cytotoxic, single point]. For `CCOc1cc(C(=O)NCCOC)ccc1OC`, the Potency was inconclusive: 31.6 µM [cytotoxic, single point]. With `CC(C)NC(=O)C1CCC(Cn2c(=O)c3sccc3n(CC(=O)Nc3ccccc3)c2=O)CC1` (stereo not given) the Potency was inconclusive: 31.6 µM [cytotoxic, single point]. In the case of `COc1ccc(-c2csc3nc(-c4ccccc4)oc(=O)c23)cc1OC`, the Potency is reported as inconclusive: 31.6 µM [cytotoxic, single point]. With `CCCCC(=O)OC1CCC2C3CCc4cc(O)ccc4C3CC[C@]12C` (stereo not given in full) the Potency was inconclusive: 20 µM [cytotoxic, single point]. In the case of `Cc1cc(C)n(CC(=O)N/N=C/c2cc([N+](=O)[O-])ccc2O)n1`, the Potency is reported as inconclusive: 0.0631 µM [cytotoxic, full curve, poor fit]. In the case of `Cc1cc(C)n(-c2ccc(C(=O)Nc3ccc4c(c3)OCCO4)cc2)n1`, the Potency is reported as inconclusive: 12.6 µM [cytotoxic, partial curve]. For `COCCCNC(=O)c1ccc2c(c1)nc1n2CCCCC1`, the Potency was inconclusive: 12.6 µM [cytotoxic, partial curve]. For `CN=c1scc(C)n1/N=C/c1ccc(O)cc1`, the Potency was active: 7.94 µM. In the case of `CCN1CCN(c2ncc3c(n2)CC(c2cc(OC)c(OC)c(OC)c2)CC3=O)CC1` (stereo not given), the Potency is reported as “inactive”. For `CCOC(=O)c1c(Nc2cccc(C(=O)OC)c2)nnc(-c2ccccc2)c1-c1ccccc1`, the Potency was “inactive”. With `CC(C)(C)C(=O)Nc1ccc(-c2nc3ccccc3s2)cc1` the Potency was active: 0.316 µM. With `CCc1ccc(NC(=O)CSc2nc3n[nH]c(C)c3c(=N)n2-c2ccc(C)cc2)cc1` the Potency was inconclusive: 12.6 µM [cytotoxic, partial curve]. With `O=c1c2c(nc3cc(-c4ccc(F)cc4)[nH]n13)CCCC2` the Potency was active: 12.6 µM. With `Cc1ccc(NS(=O)(=O)c2ccc3nc(-c4ccccc4)[nH]c3c2)cc1Cl` the Potency was inconclusive: 31.6 µM [cytotoxic, single point]. In the case of `O=C(O)c1cc2cc(Cc3cccnc3)ccc2o1`, the Potency is reported as inconclusive: 10 µM [cytotoxic, single point]. With `Cc1cccc(OCC(=O)Nc2ccc3c(c2)OCCO3)c1` the Potency was active: 10 µM. With `Cc1nc2c(-c3ccccc3)c(C)nn2c(N)c1-c1ccccc1` the Potency was active: 11.2 µM. In the case of `CCN(CC)c1ncnc2sc(C(=O)N3CCN(c4ccc(OC)cc4)CC3)c(C)c12`, the Potency is reported as inconclusive: 0.316 µM [cytotoxic, full curve, poor fit]. With `CCCCOc1ccccc1NC(=O)CC1Sc2ccccc2NC1=O` (stereo not given) the Potency was inconclusive: 31.6 µM [cytotoxic, single point]. For `CCOc1ccc(C2CC(=O)c3c([nH]c(C(=O)OCCOc4ccccc4)c3C)C2)cc1` (stereo not given), the Potency was inconclusive: 12.6 µM [cytotoxic, partial curve]. With `C[C@@H](c1ccccc1)N1C(=O)[C@H]2[C@@H]3[C@H](O)C=CC(=O)[C@H]3CC[C@H]2C1=O` the activity change, negative = cytotoxicity was inactive: 8.73% [at 9.22 µM]. For `COc1ccccc1-c1noc(-c2ccncc2)n1`, the Potency was inconclusive: 31.6 µM [cytotoxic, partial curve, poor fit]. For `COc1ccc(-c2ccc(SCC(=O)NCc3ccco3)nn2)cc1`, the Potency was inconclusive: 12.6 µM [cytotoxic, single point]. In the case of `N#C/C(=C\c1ccc(O)c(O)c1)C(=O)NCCCc1ccccc1`, the Potency is reported as inconclusive: 25.1 µM [cytotoxic, partial curve]. In the case of `Nc1ncc(-c2cc3ccccc3oc2=O)s1`, the Potency is reported as inconclusive: 15.8 µM [cytotoxic, partial curve]. For `O=c1cc(-c2ccc(O)c(O)c2)oc2ccccc12`, the Potency was “inactive”. For `Cc1ccc(NC(=O)N2CC3CCCN3c3ccccc32)cc1C` (stereo not given), the Potency was inconclusive: 31.6 µM [cytotoxic, single point]. In the case of `CCCCC(=O)Nc1cccc(-c2cn3ccsc3n2)c1`, the Potency is reported as inconclusive: 12.6 µM [cytotoxic, single point]. In the case of `COc1ccc2nc(/N=C\N(C)C)sc2c1`, the Potency is reported as inconclusive: 25.1 µM [cytotoxic, partial curve].
